Results from PubChem BioAssay AID463173 (ICCB-Longwood Screening Facility, Harvard Medical School, 2010).
About 4,300 (8.3%) of roughly 52,000 compounds were called active. Rule as the data show it: active = survival mostly below about 52% (no sharp cut-off); inactive = mostly above about 56%. Some of the results follow.

test system: DeltatarO mutant; test: growth inhibition of S. aureus wild type versus tarO mutant, primary screen, teichoic acid synthesis inhibitors, RN4220, OD600 (AID 463173); settings: OD600, 18 h, active compounds read low, screened at 18.75 µg/mL (by protocol)

Q: Which survival does the source give for CCOC(=O)c1c(NC(=O)CSc2cn(CCNC(=O)c3ccc(OC)c(OC)c3)c3ccccc23)sc2c1CCC2 here?
A: inactive: 86%

Q: With COCCNC(=O)c1cc(-c2ccccc2)on1 as the molecule, how does the survival read?
A: inactive: 100%

Q: For Cc1cc(C)n2nc(-c3ccc(Cl)cc3)nc2n1, which survival is on record?
A: inactive: 76%

Q: For COc1ccc(OC)c(NC(=O)c2oc3c(c2C)-c2nn(Cc4ccc(Cl)cc4)cc2CC3)c1, which survival is on record?
A: inactive: 97%

Q: How did the survival turn out when CC1CCN(CCCNC(=O)c2cn(C)c3ccc(S(=O)(=O)N(C)C4CCCCC4)cc3c2=O)CC1 was run?
A: inactive: 131%

Q: With COc1cc2c(cc1OC)C(COc1ccc(C(C)C)cc1)N(C(=O)c1ccc(S(=O)(=O)N3CCCC3)cc1)CC2 (stereo unspecified) as the molecule, how does the survival read?
A: inactive: 88%

Q: How did the survival turn out when COc1ccc(N2CCN(S(=O)(=O)c3ccc4c(c3)CCCN4C(C)=O)CC2)cc1 was run?
A: inactive: 70%

Q: How did the survival turn out when CCC(C)n1c(SCc2c(F)cccc2Cl)nc2ccsc2c1=O (stereo unspecified) was run?
A: inactive: 126%

Q: With COc1cc(N2C(=O)CSC23C(=O)N(Cc2ccc(C)cc2)c2ccccc23)cc(OC)c1OC (stereo unspecified) as the molecule, how does the survival read?
A: inactive: 73%

Q: How did the survival turn out when Cc1ccc2c(c1)N(C(=O)CCC(=O)NCc1cccs1)CCO2 was run?
A: inactive: 55%

Q: Cc1ccc(C)c(CN2C(=O)c3ccccc3S(=O)c3ccc(C(=O)N4CCN(c5ccccc5F)CC4)cc32)c1 (stereo unspecified) was tested. Which survival did it give?
A: inactive: 99%

Q: With COc1ccc(Nc2nc3cc(Cl)c(Cl)cc3n3cnnc23)cc1Cl as the molecule, how does the survival read?
A: inactive: 75%

Q: With Cn1c(=O)oc2cc(S(=O)(=O)N3CCC(C(=O)NCc4ccc(F)cc4)CC3)ccc21 as the molecule, how does the survival read?
A: inactive: 93%

Q: With O=C(Nc1nnc(S(=O)(=O)N2CCCC2)s1)c1ccccc1Br as the molecule, how does the survival read?
A: active: 36%

Q: How did the survival turn out when Cc1ccccc1OCCCn1c(-c2ccc(Cl)cc2)nc2ccccc2c1=O was run?
A: inactive: 80%

Q: For Cc1ccccc1Cn1nnc2c(=O)[nH]c(C3CCCN(C(=O)c4ccc(F)cc4)C3)nc21 (stereo unspecified), which survival is on record?
A: inactive: 114%

Q: How did the survival turn out when COc1ccc(NC(=O)CC2C(=O)N(c3ccc(C)cc3)C(=O)N2Cc2ccc3c(c2)OCO3)cc1 (stereo unspecified) was run?
A: inactive: 125%

Q: How did the survival turn out when CCOC(=O)C1CCN(Cc2cn[nH]c2-c2ccc(C)cc2)CC1 was run?
A: inactive: 93%

Q: With CCOC(=O)c1ccc(NC(=O)CSc2nnc(CNC(=O)c3ccc(OC)cc3)n2CC)cc1 as the molecule, how does the survival read?
A: inactive: 121%

Q: For CC(C(=O)NCc1ccc2c(c1)OCO2)N(c1ccccc1)S(C)(=O)=O (stereo unspecified), which survival is on record?
A: inactive: 70%

Q: With CC1CCc2c(sc3ncnc(NCCOCCO)c23)C1 (stereo unspecified) as the molecule, how does the survival read?
A: inactive: 98%

Q: How did the survival turn out when COc1ccc(NC2CC(O)C(CO)O2)cc1 (stereo unspecified) was run?
A: inactive: 105%

Q: How did the survival turn out when COC(=O)c1ccccc1NC(=O)c1ccc2nc(Cc3ccccc3)oc2c1 was run?
A: inactive: 94%

Q: COC(=O)c1ccccc1NC(=O)c1nc(S(=O)(=O)Cc2cccc(C)c2)ncc1Cl was tested. Which survival did it give?
A: active: 39%

Q: O=C(CCCn1c(=O)c2ccccc2n(Cc2ccc(F)cc2Cl)c1=O)NCCc1ccc(Cl)cc1 was tested. Which survival did it give?
A: inactive: 80%

Q: Which survival does the source give for CC(=O)Nc1ccc(NC(=O)c2ccc(COc3ccc(Cl)cc3Cl)o2)cc1 here?
A: active: 46%

Q: How did the survival turn out when Cc1cccc(NC(=O)c2c(C)cc(C)nc2SCC(=O)Nc2c(C)cc(C)cc2C)c1 was run?
A: inactive: 52%

Q: Which survival does the source give for Cc1ccc(-n2nc(CO)c(C(=O)NCc3cccs3)n2)cc1C here?
A: active: 39%

Q: Which survival does the source give for CCc1ccc(-c2nc3cc(NC(=O)c4cc5ccccc5cc4OC)ccc3o2)cc1 here?
A: active: 11%

Q: How did the survival turn out when COC(=O)c1cc(NC(=O)[C@H](CCS(C)(=O)=O)N2Cc3ccccc3C2=O)cc(C(=O)OC)c1 was run?
A: inactive: 86%

Q: For COc1ccc(Br)c(C(=O)Nc2cc3c(cc2N2CCCCC2)n(C)c(=O)c(=O)n3C)c1, which survival is on record?
A: inactive: 69%

Q: With CCc1cc(C(=O)NC(C)c2ccccc2)no1 (stereo unspecified) as the molecule, how does the survival read?
A: inactive: 60%

Q: How did the survival turn out when COc1cc(C2CC(=O)N(Cc3ccc(F)cc3)c3ccccc3S2)cc(OC)c1OC (stereo unspecified) was run?
A: inactive: 75%

Q: COc1cc2c(cc1OC)C(COc1ccc(F)cc1)N(C(=O)c1ccc(S(=O)(=O)N3CCCC3)cc1)CC2 (stereo unspecified) was tested. Which survival did it give?
A: inactive: 81%

Q: Which survival does the source give for CC(C)CC(=O)Nc1ccc(S(=O)(=O)Nc2cc3c(cc2N2CCOCC2)n(C)c(=O)c(=O)n3C)cc1 here?
A: inactive: 76%

Q: With Cc1ccc(NC(=O)c2cn3c4c(ccc(Cl)c4c2=O)OC(C)C3)c(C)c1 (stereo unspecified) as the molecule, how does the survival read?
A: inactive: 76%

Q: Which survival does the source give for CCCCc1nc2ccccc2n2c(-c3ccc(OC)cc3)c3c(=O)n(C)c(=O)n(C)c3c12 here?
A: inactive: 49%

Q: Which survival does the source give for CC(C)c1ccc(NC(=O)C2CCN(c3nc(-c4ccc(C(C)C)cc4)no3)CC2)cc1 here?
A: inactive: 91%

Q: Cc1c(C(=O)N2CCC(C)CC2)c(S(=O)(=O)NCc2ccc(Br)cc2)c(C)n1C was tested. Which survival did it give?
A: inactive: 85%

Q: For COc1ccc(-n2ncc(C(=O)N3CCN(c4ncccn4)CC3)c2C2CCN(C(=O)OC(C)(C)C)CC2)cc1, which survival is on record?
A: inactive: 84%

Q: Cc1ccccc1Nc1c(-c2ccc(Cl)s2)nc2c(C)cccn12 was tested. Which survival did it give?
A: inactive: 69%

Q: How did the survival turn out when Cc1cc(C)cc(NC(=O)CCCN2C(=O)COc3ccc(C)cc32)c1 was run?
A: inactive: 68%

Q: Which survival does the source give for COc1ccc(CC(=O)NC2CCN(Cc3nnnn3C(C)(C)C)CC2)cc1OC here?
A: inactive: 86%

Q: Which survival does the source give for COc1ccc(C)cc1NC(=O)C1CCN(S(=O)(=O)c2ccc3[nH]c4c(c3c2)CCCCC4)CC1 here?
A: inactive: 94%

Q: With Nc1cc(=O)nc(SCC(=O)Nc2ccc(F)cc2)n1-c1ccccc1Cl as the molecule, how does the survival read?
A: inactive: 75%

Q: How did the survival turn out when O=C(COc1ccc([N+](=O)[O-])cc1)NCC1(N2CCOCC2)CCCCC1 was run?
A: inactive: 97%

Q: With CC1/C(=N/O)CC(c2ccco2)NC1c1ccco1 (stereo unspecified) as the molecule, how does the survival read?
A: inactive: 101%

Q: Which survival does the source give for Oc1c(C(c2ccccc2F)N2CCCCC2)sc2nc(-c3ccco3)nn12 (stereo unspecified) here?
A: inactive: 89%

Q: With CC(=O)c1cccc(NC(=O)CSc2nc(=O)n(Cc3cccnc3)c3c2CCC3)c1 as the molecule, how does the survival read?
A: inactive: 75%

Q: How did the survival turn out when O=C(Cn1cc(SCc2ccccc2)c2ccccc21)N1CCCCC1 was run?
A: inactive: 85%

Q: Which survival does the source give for COc1ccc(-c2nc(C)c(CCNC(=O)C(=O)Nc3c(C)cccc3C)s2)cc1OC here?
A: inactive: 85%

Q: With CSc1ccc(CNC(=O)C2CCN(c3nnc(-n4cccc4CNc4ccc(C)cc4)s3)CC2)cc1 as the molecule, how does the survival read?
A: inactive: 77%

Q: How did the survival turn out when N#Cc1c(-n2ncnc2-c2ccc(Br)cc2)sc2c1CCCCC2 was run?
A: active: 2%

Q: For COc1ccc(OC)c(CCNC(=O)C2CCN(c3ncnc4c3nc3n4CCCCC3)CC2)c1, which survival is on record?
A: inactive: 80%

Q: How did the survival turn out when COc1ccc(OC)c(NC(=O)CCc2c(C)nn(-c3ccc(N4CCCC4)nn3)c2C)c1 was run?
A: inactive: 113%

Q: How did the survival turn out when CCOc1ccccc1NC(=O)Cn1c(=O)n(CCCC(=O)NCCc2ccc(C)cc2)c(=O)c2ccccc21 was run?
A: inactive: 89%

Q: CC(C)(C)OC(=O)N1CCC(c2c(C(=O)NCCCN3CCc4ccccc4C3)cnn2-c2ccccc2)CC1 was tested. Which survival did it give?
A: inactive: 66%

Q: Which survival does the source give for Cc1ccc(N2CC(NC(=O)c3ccc(S(=O)(=O)N4CCCC4)cc3)CC2=O)cc1 (stereo unspecified) here?
A: inactive: 102%

Q: How did the survival turn out when CC(C)c1ccc(NC(=O)c2ccc3c(c2)CCCN3S(C)(=O)=O)cc1 was run?
A: inactive: 51%

Q: With CCC(c1ccc(F)cc1)n1cc(C(=O)NCCc2ccco2)nn1 (stereo unspecified) as the molecule, how does the survival read?
A: inactive: 95%

Q: Cc1ccc(-n2c(SCc3ccccc3F)nc3[nH]ncc3c2=O)cc1C was tested. Which survival did it give?
A: inactive: 89%

Q: Which survival does the source give for Cc1cccc(NC(=O)Cn2nc(-c3ccc(Cl)cc3)c3ccccc3c2=O)c1 here?
A: inactive: 142%

Q: How did the survival turn out when COc1ccccc1CNC(=O)c1cccn1-c1nnc(N2CCCC2)s1 was run?
A: inactive: 92%

Q: How did the survival turn out when O=C(CSc1ccc2nc(-c3ccccc3)cn2n1)Nc1ccccc1C(F)(F)F was run?
A: inactive: 67%

Q: With O=C(Nc1cccc(-c2nc3ncccc3o2)c1)c1ccc(-c2cccc(Cl)c2Cl)o1 as the molecule, how does the survival read?
A: inactive: 79%

Q: How did the survival turn out when Cc1cccc(NC(=O)C(=O)c2cc(C)n(-c3ccccc3)c2C)c1C was run?
A: inactive: 80%

Q: For O=S(=O)(c1cccc(S(=O)(=O)N2CCOCC2)c1)N1CCCCCC1, which survival is on record?
A: inactive: 91%

Q: With COc1ccc(C(=O)NCC(c2cccnc2)N2CCN(c3ccc(F)cc3)CC2)cc1 (stereo unspecified) as the molecule, how does the survival read?
A: inactive: 82%

Q: For O=C(NCC(c1ccc(Cl)cc1)N1CCCCC1)c1ccc(F)cc1 (stereo unspecified), which survival is on record?
A: inactive: 62%

Q: How did the survival turn out when Nc1nc(N)c(S(=O)(=O)c2ccccc2)c(Nc2ccc(Br)cc2)n1 was run?
A: active: 44%

Q: With COc1cccc(-c2cc(C(F)(F)F)nc(-n3nc(C)c(Br)c3C)n2)c1 as the molecule, how does the survival read?
A: active: 41%

Q: With CC(=O)Nc1nonc1NC(C)=O as the molecule, how does the survival read?
A: inactive: 87%

Q: With O=c1c2c3c(sc2nc2n1CCCCC2)C(O)CCC3 (stereo unspecified) as the molecule, how does the survival read?
A: inactive: 59%

Q: CNC(=O)c1ccc(Nc2nnc(-c3ccc(C)c(S(=O)(=O)NC(C)(C)C)c3)c3ccccc23)cc1 was tested. Which survival did it give?
A: inactive: 94%

Q: How did the survival turn out when CCc1ccc(-n2c(=O)c3cccnc3n2CC(=O)NCc2ccc(F)cc2)cc1 was run?
A: inactive: 94%

Q: Which survival does the source give for CCOC(=O)N1CCc2c(sc3c2c(=O)n(Cc2ccccc2)c(=O)n3CC(=O)Nc2c(C)cccc2C)C1 here?
A: inactive: 81%

Q: How did the survival turn out when CCOCN(C(=O)Cn1c(C(C)O)nc2ccccc21)c1c(C)cccc1CC (stereo unspecified) was run?
A: inactive: 83%

Q: O=C(NCc1cccc(F)c1)c1ccc(CS(=O)c2ccccc2Cl)o1 (stereo unspecified) was tested. Which survival did it give?
A: inactive: 68%

Q: With Cn1c(=O)c(=O)n(C)c2cc(S(=O)(=O)N3CCN(c4ccccc4F)CC3)ccc21 as the molecule, how does the survival read?
A: inactive: 83%

Q: For O=C(Nc1cccc(C(F)(F)F)c1)c1noc2c1CCc1ccccc1-2, which survival is on record?
A: inactive: 55%

Q: With CC(=O)c1cc(-c2ccccc2)n(CC(=O)NC2CCCCCC2)c1C as the molecule, how does the survival read?
A: inactive: 113%

Q: Which survival does the source give for CCc1nc(-c2cc(S(=O)(=O)N3CCN(c4ccc(F)cc4)CC3)ccc2OC)no1 here?
A: inactive: 49%

Q: COc1ccc(N2CCN(C(=O)CSCc3nc(-c4ccccc4Cl)oc3C)CC2)cc1 was tested. Which survival did it give?
A: inactive: 83%

Q: CN(C1CCCCC1)S(=O)(=O)c1ccc(C(=O)Nc2sc3c(c2C(N)=O)CC(C)(C)NC3(C)C)cc1 was tested. Which survival did it give?
A: inactive: 84%

Q: For Cc1cc(O)c(C(c2cccc(F)c2)N2CCC(C)CC2)c(=O)n1Cc1ccco1 (stereo unspecified), which survival is on record?
A: inactive: 82%

Q: How did the survival turn out when O=C(Cn1c(=O)n(Cc2cccs2)c(=O)c2cccnc21)Nc1ccccc1F was run?
A: inactive: 73%
